One test concerns the target T1, recombinant human γc (human, UniProt P31785 23-262).
T1 construct: Recombinant chain immobilised on the SPR chip and used as ELISA antigen; also called common γ chain; CD132
T1 sequence (looked up): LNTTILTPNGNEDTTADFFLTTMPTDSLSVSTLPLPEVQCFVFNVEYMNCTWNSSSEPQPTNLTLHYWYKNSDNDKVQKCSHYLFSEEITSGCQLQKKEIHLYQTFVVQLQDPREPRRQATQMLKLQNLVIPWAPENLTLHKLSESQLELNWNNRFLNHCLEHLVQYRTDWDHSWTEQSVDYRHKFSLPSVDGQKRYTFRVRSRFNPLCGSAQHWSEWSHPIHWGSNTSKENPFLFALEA
Kind of test: SPR, receptor chain immobilised on the chip, antibody flowed over. As to the method: (§1) Association/dissociation of the anti-IL-2Rβ/γc bispecific antibody to/from the receptor chains was measured in Surface Plasmon Resonance using recombinant IL-2Rβ or γc chains immobilised on a chip, and flowing various concentrations of the antibody over the surface.

In the next test the target is T2, recombinant human IL-2Rβ (human, UniProt P14784 27-240).
T2 construct: Recombinant chain immobilised on the SPR chip and used as ELISA antigen; also called CD122; interleukin 2 receptor β
T2 sequence (looked up): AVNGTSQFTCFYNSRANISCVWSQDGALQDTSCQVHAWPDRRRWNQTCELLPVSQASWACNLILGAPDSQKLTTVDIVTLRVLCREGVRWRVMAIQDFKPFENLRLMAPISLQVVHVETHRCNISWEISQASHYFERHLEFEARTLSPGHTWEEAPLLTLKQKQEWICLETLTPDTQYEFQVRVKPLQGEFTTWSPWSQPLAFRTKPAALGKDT
Described as above. As to the method: as §1

B1: bispecific anti-IL-2Rβ/γc antibody P2C4/P1A3 (bispecific antibody)
chain 1: EVQLVQSGAEVKKPGSSVKVSCKASGYTFTNYYMHWVRQAPGQGLEWMGAIMPSRGGTSYPQKFQGRVTMTGDTSTSTVYMELSSLRSEDTAVYYCARGEYYYDSSGYYYWGQGTLVTVSSGGGGSGGGGSGGGGSQSALTQPASVSGSPGQSIAISCTGTSSDIGHYDFVSWYQQHPGTAPKLIIYDINNRPSGISNRFSGSKSDNMASLTISGLQPEDEADYYCSAYTSSDTLVFGGGTKLTVLNSGAGTA[not shown - human IgG1 Fc with changes and a few adjoining residues]
chain 2: QVQLQQWGAGLLKPSETLSLTCAVYGGSFSGYYWSWIRQPPGKGLEWIGEINHSGSTNYNPSLKSRATISVDTSKNQFSLKLSSVTAADTAVYYCATSPGGYSGGYFQHWGQGTLVTVSSGGGGSGGGGSGGGGS[not shown - about 100 residues]YCMQGTHWPWTFGQGTKVEIKNSGAGTAAATHTCPPCPAPEAAGGPSVFLFPPKPKDTLMISRTPEVTCVVVDVSHEDPEVKFNWYVDGVEVHNAKTKPREEQYNSTYRVVSVLTVLHQDWLNGKEYKCKVSNKALPAPIEKTISKAKGQPREPQVCTLPPSRDELTKNQVSLSCAVKGFYPSDIAVEWESNGQPENNYKTTPPVLDSDGSFFLVSKLTVDKSRWQQGNVFSCSVMHEALHNHYTQKSLSLSPGK
notes: Knob-in-hole monovalent bispecific scFv-Fc on a human IgG1 Fc with LALA; also called anti-IL-2Rβ/γc bispecific antibody; Mega2; copies: 1 + 1
In the case of B1, the results for the equilibrium dissociation constant (Kd) with recombinant human γc and with recombinant human IL-2Rβ were 20.9 nM and 143 nM, respectively.

B2: bispecific anti-IL-2Rβ/γc antibody P1G11/P1A3 (bispecific antibody)
chain 1: QVQLQQWGAGLLKPSETLSLTCAVYGGSFSGYYWSWIRQPPGKGLEWIGEINHSGSTNYNPSLKSRVTISVDTSKNQFSLKLSSVTAADTAVYYCARSSSGDAFDIWGQGTMVTVSSGGGGSGGGGSGGGGSNFMLTQPHSVSESPGKTVTISCTRSSGSIASNYVQWYQQRPGSSPTTVIFDDNQRPTGVPDRFSAAIDTSSSSASLTISGLTAEDEADYYCQSSHSTAVVFGGGTKLTVLNSGAGTA[not shown - human IgG1 Fc with changes and a few adjoining residues]
chain 2: QVQLQQWGAGLLKPSETLSLTCAVYGGSFSGYYWSWIRQPPGKGLEWIGEINHSGSTNYNPSLKSRATISVDTSKNQFSLKLSSVTAADTAVYYCATSPGGYSGGYFQHWGQGTLVTVSSGGGGSGGGGSGGGGS[not shown - about 100 residues]YCMQGTHWPWTFGQGTKVEIKNSGAGTAAATHTCPPCPAPEAAGGPSVFLFPPKPKDTLMISRTPEVTCVVVDVSHEDPEVKFNWYVDGVEVHNAKTKPREEQYNSTYRVVSVLTVLHQDWLNGKEYKCKVSNKALPAPIEKTISKAKGQPREPQVCTLPPSRDELTKNQVSLSCAVKGFYPSDIAVEWESNGQPENNYKTTPPVLDSDGSFFLVSKLTVDKSRWQQGNVFSCSVMHEALHNHYTQKSLSLSPGK
In the case of B2, the equilibrium dissociation constant (Kd) is 337 nM with recombinant human γc and 128 nM with recombinant human IL-2Rβ.

B3: bispecific anti-IL-2Rβ/γc antibody P2D12/P1A3 (bispecific antibody)
chain 1: HVQLVETGGGLVQPGGSLRLSCAASGFTFSSYAMSWVRQAPGKGLEWVSAISGSGGSTYYADSVKGRFTISRDNSKNTLYLQMNSLRAEDTAVYYCARDLGDYWGQGTLVTVSSGGGGSGGGGSGGGGSDIQLTQSPSSLSASVGDRVTITCQASQDIGNYLNWYQLKPGKAPKLLIYDASNLETGVPSRFSGSGSGTDFTFTISSLQPEDIATYYCLQLYDYPLTFGGGTKVEIKNSGAGTA[not shown - human IgG1 Fc with changes and a few adjoining residues]
chain 2: QVQLQQWGAGLLKPSETLSLTCAVYGGSFSGYYWSWIRQPPGKGLEWIGEINHSGSTNYNPSLKSRATISVDTSKNQFSLKLSSVTAADTAVYYCATSPGGYSGGYFQHWGQGTLVTVSSGGGGSGGGGSGGGGS[not shown - about 100 residues]YCMQGTHWPWTFGQGTKVEIKNSGAGTAAATHTCPPCPAPEAAGGPSVFLFPPKPKDTLMISRTPEVTCVVVDVSHEDPEVKFNWYVDGVEVHNAKTKPREEQYNSTYRVVSVLTVLHQDWLNGKEYKCKVSNKALPAPIEKTISKAKGQPREPQVCTLPPSRDELTKNQVSLSCAVKGFYPSDIAVEWESNGQPENNYKTTPPVLDSDGSFFLVSKLTVDKSRWQQGNVFSCSVMHEALHNHYTQKSLSLSPGK
For the molecule B3, the Kd came out at 78.7 nM with recombinant human γc and 181 nM with recombinant human IL-2Rβ.

One may read the Kd as the concentration at which binding is half-saturated.

These data come from US20180194853A1 (published 2018).
